Experimental findings from the supplement of paper PMC9446081 are described below.

About 220 (0.56%) of roughly 39,000 compounds showed activity. Some of the results follow.
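Also: static incubation at 37 °C against the wild-type strain, values averaged over two biological replicates.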

This assay concerns Escherichia coli K-12 BW25113. Kind of assay: relative growth (OD600 normalised to plate interquartile mean) (fraction); higher = less growth inhibition, active = 0.2 or less. Conditions: 50 µM; LB; incubation time: overnight (16-24 h).
For the molecule `O=S1(=O)C[C@@H]2NC(=S)N[C@@H]2C1`, the relative growth was inactive: 0.971.

As for `CCCNC(=O)c1cc2c(c(-c3cccc(-c4ccc(F)cc4)c3)n1)[C@@H](CCO)N([S@](=O)C(C)(C)C)C2`, the relative growth was inactive: 0.996.

Regarding `COc1ccc(S(=O)(=O)Nc2ccc3c(c2)C(=O)N([C@H](C)CO)C[C@H](C)[C@@H](CN(C)C(=O)c2ccccc2)OCCCC[C@H](C)O3)cc1`, the relative growth was inactive: 1.

On to `Cc1ccc(S(=O)(=O)N[C@@H]2CC[C@@H](CC(=O)N3CCC(Cc4ccccc4)CC3)O[C@@H]2CO)cc1`, for which the relative growth was inactive: 0.998.

Regarding `Cc1noc(C)c1S(=O)(=O)N(C)C[C@H]1Oc2ccc(NC(=O)Cn3cnnn3)cc2C(=O)N([C@@H](C)CO)C[C@H]1C`, the relative growth was inactive: 1.01.

With `Cc1noc(C)c1-c1ccc(N)cc1`, the relative growth was inactive: 0.918.

Consider `CC12CCC(CC1=O)C2(C)C` (stereo unspecified), for which the relative growth was inactive: 1.01.

Turning to `Cc1ccc(S(=O)(=O)N(C)C[C@H]2Oc3c(NC(=O)c4cc(C)nn4C)cccc3C(=O)N([C@@H](C)CO)C[C@H]2C)cc1`, the relative growth is inactive: 0.989.

Take `C[C@@]12CC[C@@H]3c4ccc(O)cc4C[C@H](CCCCCCCCC[S@@](=O)CCCC(F)(F)C(F)(F)F)[C@@H]3[C@@H]1CC[C@@H]2O`: the relative growth was inactive: 1.05.

On to `CCOC(=O)C1=CC(OC(CC)CC)C(NC(C)=O)C(N)C1.O=P(O)(O)O` (stereo unspecified), for which the relative growth is inactive: 0.95.

Consider `C[C@H]1CCCCO[C@H](CN(C)S(=O)(=O)c2cn(C)cn2)[C@@H](C)CN([C@@H](C)CO)C(=O)c2cc(NS(=O)(=O)c3ccc(F)cc3)ccc2O1`, for which the relative growth is inactive: 0.988.

As for `C[C@@H]1CN([C@H](C)CO)C(=O)Cc2cc(NC(=O)Nc3cccc4ccccc34)ccc2O[C@@H]1CN(C)C(=O)NC1CCCCC1`, the relative growth is inactive: 1.02.

For the molecule `CC(O)C(=O)[O-].[Na+]` (stereo unspecified), the relative growth was inactive: 0.864.

On to `Clc1ccc(CON=C(Cn2ccnc2)c2ccc(Cl)cc2Cl)c(Cl)c1.O=[N+]([O-])O`, for which the relative growth was inactive: 0.999.

Turning to `COCCN1CCCn2c(nc(CNS(C)(=O)=O)cc2=O)C1`, the relative growth is inactive: 1.01.

`COc1ccc(S(=O)(=O)N(C)C[C@@H]2OCCCC[C@H](C)Oc3ccc(NC(=O)Nc4ccccc4)cc3C(=O)N([C@H](C)CO)C[C@@H]2C)cc1`: the relative growth is inactive: 1.02.

Regarding `C[C@H](CO)N1C[C@H](C)[C@@H](CN(C)C(=O)c2cccnc2)Oc2cc(-c3cccc(C#N)c3)ccc2S1(=O)=O`, the relative growth was inactive: 1.01.

Consider `Cc1noc(C)c1NC(=O)Nc1ccc2c(c1)CC(=O)N([C@@H](C)CO)C[C@H](C)[C@H](CN(C)Cc1ccc(C(=O)Nc3ccccc3N)cc1)O2`, for which the relative growth was inactive: 1.05.

In the case of `O=C(C[C@H]1CC[C@H]2[C@@H](COC[C@@H](O)CN2S(=O)(=O)c2ccccc2)O1)N1CCc2ccccc2C1`, the relative growth was inactive: 1.02.

For the molecule `C[C@H]1[C@H]([Si](C)(C)F)[C@@H](CCn2cc([C@H](O)c3ccccc3)nn2)O[C@]12C(=O)N(c1ccccc1)c1ccccc12`, the relative growth was inactive: 0.989.

For the molecule `C[C@@H]1CN([C@H](C)CO)C(=O)c2cc(NC(=O)Nc3ccc(C(F)(F)F)cc3)ccc2O[C@@H]1CN(C)S(=O)(=O)c1ccc(Cl)cc1`, the relative growth is inactive: 0.998.

Take `C[C@@H]1CN([C@@H](C)CO)C(=O)Cc2cc(NS(=O)(=O)c3cn(C)cn3)ccc2O[C@H]1CN(C)S(=O)(=O)c1cn(C)cn1`: the relative growth was inactive: 0.97.

On to `C[C@@H]1CCCCO[C@H](CN(C)Cc2ccncc2)[C@H](C)CN([C@@H](C)CO)C(=O)c2cc(NC(=O)Cc3ccccc3)ccc2O1`, for which the relative growth is inactive: 0.99.

As to `C[C@@H]1O[C@@H](O[C@@H]2[C@@H](O)[C@H](OCCc3ccc(O)c(O)c3)O[C@H](COC(=O)/C=C/c3ccc(O)c(O)c3)[C@H]2O)[C@H](O)[C@H](O)[C@H]1O`, the relative growth is inactive: 1.01.

`COc1ccc(CN(C)C[C@@H]2OCCCC[C@H](C)Oc3ccc(NC(=O)NC4CCCCC4)cc3C(=O)N([C@H](C)CO)C[C@@H]2C)cc1`: the relative growth was inactive: 1.02.

In the case of `O=C(Nc1ccc(F)cc1)N[C@@H]1C[C@@H]2O[C@H](CO)CC[C@@H]2O[C@@H]1CCc1ccc(-c2ccccc2)cc1`, the relative growth is inactive: 1.02.

Regarding `COc1ccc(NC(=O)Nc2ccc3c(c2)C(=O)N([C@@H](C)CO)C[C@@H](C)[C@H](CN(C)C(=O)c2ccccc2)OCCCC[C@@H](C)O3)cc1`, the relative growth was inactive: 0.88.

`C[C@@H]1CCCCO[C@@H](CN(C)Cc2ccccc2)[C@H](C)CN([C@@H](C)CO)C(=O)c2cc(NC(=O)Nc3cccc4ccccc34)ccc2O1`: the relative growth was inactive: 0.998.

As to `C[C@@H]1CN([C@H](C)CO)C(=O)c2cccc(NC(=O)Nc3ccccc3)c2O[C@@H]1CN(C)CC1CCCCC1`, the relative growth was inactive: 0.938.

In the case of `CC(C)NC(=O)N(C)C[C@H]1Oc2ccc(NC(=O)Cc3ccccc3)cc2C(=O)N([C@H](C)CO)C[C@@H]1C`, the relative growth was inactive: 1.03.

On to `COc1ccc(NC(=O)N2C[C@H](O)COC[C@@H]3O[C@H](CC(=O)NC4Cc5ccccc5C4)CC[C@H]32)cc1`, for which the relative growth was inactive: 0.979.

Consider `O/N=C1\CCCCc2c1[nH]c1ccc(C3CCCCC3)cc21`, for which the relative growth was inactive: 0.977.

For `COc1ccccc1S(=O)(=O)N[C@H]1C=C[C@@H](CC(=O)N2CCN(C)CC2)O[C@H]1CO`, the relative growth is inactive: 1.01.

As to `C[C@H](O)C#Cc1ccc2c(c1)O[C@H](CN(C)C(=O)Cc1ccccn1)[C@@H](C)CN([C@H](C)CO)S2(=O)=O`, the relative growth was inactive: 1.01.

With `C[C@@H]1CN([C@@H](C)CO)C(=O)c2cc(NC(=O)Nc3ccc(C(F)(F)F)cc3)ccc2O[C@@H]1CN(C)Cc1ccc2c(c1)OCO2`, the relative growth is inactive: 0.973.

On to `CC(C)NC(=O)N(C)C[C@@H]1Oc2ccc(NC(=O)C3CCCCC3)cc2CC(=O)N([C@@H](C)CO)C[C@H]1C`, for which the relative growth is inactive: 1.

Consider `COc1ccc(CNC(=O)C[C@@H]2C[C@@H]3c4cc(NS(=O)(=O)c5ccc(F)cc5)ccc4O[C@@H]3[C@H](CO)O2)cc1`, for which the relative growth was inactive: 1.03.

As for `Cc1noc(C)c1NC(=O)Nc1ccc2c(c1)C(=O)N([C@@H](C)CO)C[C@H](C)[C@@H](CN(C)Cc1ccccc1)OCCCC[C@H](C)O2`, the relative growth is inactive: 1.01.

Turning to `COc1ccc2c3c([nH]c2c1)[C@H](CO)N(C[C@]13CN(C1)S(=O)(=O)C)C(=O)C1CC1`, the relative growth is inactive: 1.01.

For `COc1ccccc1S(=O)(=O)N(C)C[C@@H]1Oc2cc(C#CCC(C)C)ccc2S(=O)(=O)N([C@H](C)CO)C[C@H]1C`, the relative growth was inactive: 1.01.

For `O=C(CCCCCCC(=O)Nc1ccccc1O)N/N=C/c1ccc(N(c2ccccc2)c2ccccc2)cc1`, the relative growth is inactive: 1.01.

For the molecule `C[C@@H]1CN([C@@H](C)CO)C(=O)c2cccc(NS(=O)(=O)c3cn(C)cn3)c2O[C@@H]1CN(C)Cc1ccc(C(=O)O)cc1`, the relative growth was inactive: 0.981.

For `C[C@@H]1CN([C@@H](C)CO)S(=O)(=O)c2ccc(C3=CCCCC3)cc2O[C@@H]1CN(C)S(=O)(=O)c1cn(C)cn1`, the relative growth is inactive: 0.992.

As for `Cc1ccc(S(=O)(=O)N(C)C[C@H]2Oc3cc(Br)ccc3S(=O)(=O)N([C@@H](C)CO)C[C@H]2C)cc1`, the relative growth is inactive: 1.01.

With `COc1ccc(S(=O)(=O)N(C)C[C@@H]2Oc3ccc(NC(=O)Cn4cnnn4)cc3CC(=O)N([C@@H](C)CO)C[C@H]2C)cc1`, the relative growth is inactive: 1.

On to `CC(C)Cc1nc2ccccc2[nH]1`, for which the relative growth was inactive: 1.04.

As to `C[C@H](CO)N1C[C@H](C)[C@@H](CN(C)Cc2ccc(Cl)c(Cl)c2)Oc2ccc(NC(=O)Nc3ccc(F)cc3)cc2CC1=O`, the relative growth was inactive: 1.02.

On to `COc1ccc(NC(=O)Nc2ccc3c(c2)C(=O)N([C@H](C)CO)C[C@@H](C)[C@@H](CN(C)C(=O)Nc2cccc4ccccc24)O3)cc1`, for which the relative growth was inactive: 0.996.

Consider `C=C1C[C@]23CC[C@@H]4[C@@](C)(CCC[C@@]4(C)C(=O)O)[C@H]2CC[C@H]1C3`, for which the relative growth was inactive: 1.01.

Consider `CN(C)CCc1cc(Br)c(OCCCNC(=O)/C=C/c2cc(Br)c(OCCN3CCCC3)c(Br)c2)c(Br)c1`, for which the relative growth is inactive: 0.993.

`C[C@H]1CCCCO[C@@H](CN(C)C(=O)Cc2ccccc2)[C@@H](C)CN([C@@H](C)CO)C(=O)c2cc(NC(=O)c3ccccc3)ccc2O1`: the relative growth is inactive: 0.978.

Turning to `COc1cccc(C#Cc2ccc3c(c2)O[C@H](CN(C)C(=O)CN2CCOCC2)[C@H](C)CN([C@@H](C)CO)S3(=O)=O)c1`, the relative growth is inactive: 1.

Turning to `CO[C@H]1CN(C)C(=O)c2ccc(NS(C)(=O)=O)cc2OC[C@H](C)N(C(=O)C2CCOCC2)C[C@H]1C`, the relative growth is inactive: 0.998.

Regarding `C[C@H](CO)N1C[C@H](C)[C@H](CN(C)Cc2ccc(C(=O)O)cc2)Oc2ccc(NS(=O)(=O)c3cn(C)cn3)cc2C1=O`, the relative growth is inactive: 1.02.

Regarding `C[C@@H]1CCCCO[C@H](CN(C)S(=O)(=O)c2ccccc2)[C@H](C)CN([C@@H](C)CO)C(=O)c2cc(NC(=O)CCC(F)(F)F)ccc2O1`, the relative growth was inactive: 0.995.

With `C[C@@H]1CN([C@@H](C)CO)C(=O)c2cc(NC(=O)CCN3CCOCC3)ccc2O[C@@H]1CN(C)CC1CC1`, the relative growth was inactive: 1.

In the case of `C[C@@H]1CN([C@H](C)CO)C(=O)c2cc(NS(C)(=O)=O)ccc2O[C@@H](C)CCCCO[C@H]1CN(C)CC1CC1`, the relative growth was inactive: 0.993.

In the case of `Cc1ccc(S(=O)(=O)Nc2ccc3c(c2)CC(=O)N([C@@H](C)CO)C[C@H](C)[C@@H](CN(C)Cc2ccncc2)O3)cc1`, the relative growth is inactive: 1.01.

As for `OC[C@H]1NC[C@H](O)[C@@H](O)[C@@H]1O`, the relative growth was inactive: 1.02.

For `C[C@H](CO)N1C[C@H](C)[C@@H](CN(C)Cc2ccc(C(F)(F)F)cc2)Oc2c(NC(=O)c3nc4ccccc4s3)cccc2C1=O`, the relative growth is inactive: 0.976.

Take `COc1cccc(NC(=O)N2C[C@H](O)COC[C@@H]3O[C@@H](CC(=O)NC4Cc5ccccc5C4)CC[C@H]32)c1`: the relative growth was inactive: 1.02.
